Among the data in the antibiotic and cytotoxicity screens of Wong et al. (2023) are cytotoxicity call and growth inhibition call values, retold here.

The subject of one experiment is HSkMC. Put plainly: cytotoxicity call (relative viability < 0.9). The following applies: 10 µM.
The test system of a further experiment is S. aureus RN4220. Description: growth inhibition call (relative growth <= 0.2). The following applies: 50 µM.

This is one part of the list.

Consider `CC(N)C(O)c1ccccc1.Cl` (configuration not stated), for which the cytotoxicity call in the experiment on HSkMC was “inactive”. Further, the growth inhibition call in the experiment with S. aureus RN4220 is “inactive”.
Take `CN1CCN([C@@H](CN)c2ccc3c(c2)OCO3)CC1`: the cytotoxicity call in the experiment on HSkMC is “inactive”. In addition, the growth inhibition call in the experiment on S. aureus RN4220 is “inactive”.
For the molecule `CN1C[C@@H]2c3nc(N(C)C)ncc3CS(=O)(=O)[C@H]2C1`, the cytotoxicity call with HSkMC is “inactive”. In addition, the growth inhibition call in the experiment on S. aureus RN4220 was “inactive”.
In the case of `C[C@@H](CN)CC(=O)O`, the cytotoxicity call in the experiment on HSkMC was “inactive”. In addition, the growth inhibition call with S. aureus RN4220 is “inactive”.
In the case of `C[C@@H](N)Cc1c[nH]c2ccc(O)cc12`, the cytotoxicity call in the experiment with HSkMC is “inactive”. Also, in the experiment with S. aureus RN4220, the growth inhibition call is “inactive”.
With `C1CCC(NC2CCCCC2)CC1`, in the experiment with HSkMC, the cytotoxicity call was “inactive”. Also, in the experiment with S. aureus RN4220, the growth inhibition call is “inactive”.
In the case of `CCN1C[C@]23CNC[C@@H](C[C@H]2S1(=O)=O)O3`, the cytotoxicity call in the experiment on HSkMC was “inactive”. Further, the growth inhibition call with S. aureus RN4220 was “inactive”.
On to `O=C(O)[C@H]1[C@H](C(=O)O)[C@H]2CC[C@@H]1O2`, for which the cytotoxicity call in the experiment on HSkMC was “inactive”. For the same molecule, the growth inhibition call with S. aureus RN4220 is “inactive”.
As to `CC[C@@H]1/C=C/C=C/C[C@H](C)[C@@H](O)[C@](C)(O)C(=O)[C@H](C)[C@@H](O)[C@H](C)C(=O)[C@H](C)[C@@H](O)[C@H](C)/C=C/C(=O)O[C@H]2[C@@H](C)[C@@H](CC1)O[C@@]1(CC[C@@H](C)[C@@H](C[C@H](C)O)O1)[C@@H]2C`, in the experiment with HSkMC, the cytotoxicity call is “inactive”. In addition, the growth inhibition call in the experiment on S. aureus RN4220 is “inactive”.
Regarding `N[C@H]1CNC(=O)C1`, the cytotoxicity call in the experiment on HSkMC was “inactive”. Besides, the growth inhibition call with S. aureus RN4220 is “inactive”.
As to `O=C1NC(=O)C(=C[C@@H]2CC=CCC2)C(=O)N1`, the cytotoxicity call in the experiment with HSkMC was “inactive”. The growth inhibition call in the experiment with S. aureus RN4220 is “inactive”.
For the molecule `O=C(NCc1ccccc1)[C@H]1C[C@H]2CNC[C@H]1O2`, the cytotoxicity call in the experiment on HSkMC was “inactive”. Besides, the growth inhibition call in the experiment with S. aureus RN4220 is “inactive”.
On to `Cn1cc(C(=O)Nc2nn[nH]n2)c2ccccc21`, for which the cytotoxicity call with HSkMC was “inactive”. In addition, the growth inhibition call in the experiment with S. aureus RN4220 is “inactive”.
In the case of `Cc1c(N)nc([C@H](CC(N)=O)NC[C@@H](N)C(N)=O)nc1C(=O)N[C@H](C(=O)N[C@@H](C)[C@H](O)[C@@H](C)C(=O)N[C@@H](C(=O)NCCc1nc(-c2nc(C(=O)NCCC[S+](C)C)cs2)cs1)[C@@H](C)O)[C@@H](O[C@H]1O[C@H](CO)[C@H](O)[C@@H](O)[C@H]1O[C@H]1O[C@H](CO)[C@@H](O)[C@H](OC(N)=O)[C@@H]1O)c1cnc[nH]1`, the cytotoxicity call with HSkMC is “inactive”. For the same molecule, in the experiment with S. aureus RN4220, the growth inhibition call is “inactive”.
As for `Cc1cc([C@@H](C#N)c2ccc(Cl)cc2)c(Cl)cc1NC(=O)c1cc(I)cc(I)c1O`, the cytotoxicity call in the experiment on HSkMC was “active”. The growth inhibition call with S. aureus RN4220 is “inactive”.
In the case of `C[N+](C)(C)CCCCCCCCCC[N+](C)(C)C.[Br-].[Br-]`, the cytotoxicity call in the experiment with HSkMC is “inactive”. For the same molecule, the growth inhibition call with S. aureus RN4220 was “inactive”.
Consider `O=C(O)/C=C/CO`, for which the cytotoxicity call with HSkMC is “inactive”. In addition, the growth inhibition call with S. aureus RN4220 is “inactive”.
In the case of `O[C@@H]1[C@@H]2C[C@H]3[C@H]1N[C@@H]1C[C@@H]2[C@@H]3[C@H]1O`, the cytotoxicity call in the experiment with HSkMC was “inactive”. The growth inhibition call with S. aureus RN4220 was “inactive”.
For the molecule `c1nc(N2CCN3CCC[C@H]3C2)c2[nH]cnc2n1`, the cytotoxicity call with HSkMC was “inactive”. Besides, the growth inhibition call in the experiment on S. aureus RN4220 was “inactive”.
Turning to `CC[C@@H](C(=O)[C@@H](C)[C@@H](O)[C@H](C)[C@@H]1O[C@@H]([C@@H](CC)C(=O)O)CC[C@@H]1C)[C@H]1O[C@]2(C=C[C@@H](O)[C@]3(CC[C@@](C)([C@H]4CC[C@](O)(CC)[C@H](C)O4)O3)O2)[C@H](C)C[C@@H]1C`, the cytotoxicity call in the experiment with HSkMC was “active”. In addition, the growth inhibition call with S. aureus RN4220 was “active”.
Take `O=C1CC2(CCNCC2)CN1`: in the experiment on HSkMC (human skeletal muscle cells), the cytotoxicity call is “inactive”. In the experiment on S. aureus RN4220, the growth inhibition call was “inactive”.
